Laboratory results from PubChem BioAssay AID360 (National Center for Advancing Translational Sciences (NCATS), 2006).
Screen size: about 48,000 compounds; about 550 (1.1%) were called active. Inconclusive results (about 4%) are left out. No stated cut-off is given here; in the data, active means potency below about 15 µM; inconclusive means mostly about 16 µM to 33 µM; inactive means weaker than that. This is one part of the list.

target: Lysosomal acid glucosylceramidase (Homo sapiens) (UniProt P04062); test: Glucocerebrosidase; conditions: purified enzyme, resorufin glucoside fluorescence (screen aimed at inhibitors), 20 min;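 further: the screen sought inhibitors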
In short: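 Wild-type enzyme at 0.2 nM final in 50mM citric acid/KH2PO4, 10mM sodium taurocholate, 0.01% tween-20, pH 5.9, with resorufin beta-D-glucopyranoside at 30 uM final. Compounds titrated, 20 min at RT, red fluorescence read; AC50 from titration.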
Potency means the concentration at half of the fitted maximal effect.

UniProt P04062, sequence (P04062 whole entry, looked up): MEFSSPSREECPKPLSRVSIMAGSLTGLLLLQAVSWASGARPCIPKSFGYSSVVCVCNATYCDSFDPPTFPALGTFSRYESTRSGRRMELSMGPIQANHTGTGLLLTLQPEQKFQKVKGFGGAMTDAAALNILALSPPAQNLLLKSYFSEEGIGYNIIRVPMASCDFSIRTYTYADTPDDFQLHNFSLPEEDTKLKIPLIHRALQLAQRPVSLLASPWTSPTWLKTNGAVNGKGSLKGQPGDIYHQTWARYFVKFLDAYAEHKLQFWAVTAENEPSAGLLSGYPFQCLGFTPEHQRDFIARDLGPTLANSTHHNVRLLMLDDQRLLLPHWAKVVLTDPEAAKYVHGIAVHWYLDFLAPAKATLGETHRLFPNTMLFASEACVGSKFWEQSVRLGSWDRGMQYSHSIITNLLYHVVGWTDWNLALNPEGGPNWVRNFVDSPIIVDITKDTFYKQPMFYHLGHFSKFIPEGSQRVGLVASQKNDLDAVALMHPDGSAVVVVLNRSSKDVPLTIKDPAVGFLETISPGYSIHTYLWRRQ

Potency, inactive:
COC(=O)CS(=O)(=O)c1ccc2c(c1)CC(=O)N2 > 76.9 µM
O=c1cc(N2CCN(c3ccc(F)cc3)CC2)[nH]c(=O)n1C1CCCCC1 > 76.9 µM
CCC(c1nnnn1Cc1ccco1)N1CCN(C(=O)c2ccco2)CC1 (stereo unspecified) > 76.9 µM
O=S(=O)(NCC1CCCO1)c1cccc(S(=O)(=O)N2CCCC2)c1 (stereo unspecified) > 76.9 µM
CCn1c(SCC(=O)Nc2ccccc2N2CCOCC2)nnc1-c1ccccc1O > 76.9 µM
C1=C(c2ccccc2)Nc2nnnn2C1 > 76.9 µM
Cc1cc(NC(=O)c2ccc(S(=O)(=O)N3CCOCC3)cc2)nc2c1c(=O)oc1ccccc12 > 76.9 µM
CCC(C)n1cnc2c(c1=O)c1nc3ccccc3nc1n2-c1ccc2c(c1)OCCO2 (stereo unspecified)
CC1(C)C2CCC1(C)C(OC(=O)CCn1ccnc1)C2 (stereo unspecified) > 76.9 µM
COc1ccccc1C(=O)N1CCN(c2cccc(Cl)c2)CC1 > 76.9 µM
O=C(CNC(=O)c1ccco1)OC(C(=O)c1ccccc1)c1ccccc1 (stereo unspecified) > 76.9 µM
Cc1nnc(Sc2nc(Sc3nnc(C)s3)nc(N3CCN(C)CC3)n2)s1 > 76.9 µM
Cn1c(=O)c2c(nc(SCc3ccccn3)n2C)n(C)c1=O > 76.9 µM
O=C(c1ccc(NS(=O)(=O)c2cccc3cccnc23)cc1)N1CCOCC1 > 76.9 µM
C=CCn1c(SCC(=O)NCc2ccco2)nc2sc3c(c2c1=O)CCCCC3 > 76.9 µM
CCN(CC)CCOC(=O)C12CC3CC(CC(C3)C1)C2 > 76.9 µM
CCOC(=O)c1[nH]c(C)c(C(=O)Nc2ccc3c(c2)CCC3)c1C > 76.9 µM
CNC(=O)c1cc(S(=O)(=O)N(C)C)ccc1Cl > 76.9 µM
COc1cccc(CNC(=O)C2CCN(S(=O)(=O)c3ccc(F)cc3)CC2)c1 > 76.9 µM
Cn1c(SCC(N)=O)nnc1-c1ccccc1 > 76.9 µM
COc1cccc(N(C(C)=O)c2nc(C)cc(C)c2C#N)c1 > 76.9 µM
CCOC(=O)CNC(=O)CN1CCCN(S(=O)(=O)c2ccc(Br)s2)CC1 > 76.9 µM
CC1(C)CC(=O)C=C(Nc2ccccc2NC(=O)c2cnccn2)C1 > 76.9 µM
CCCS(=O)(=O)N1CCCC(C(=O)NCCCN(Cc2ccccc2)C(C)C)C1 (stereo unspecified) > 76.9 µM
CCCn1c(SC2C(=O)CC(C)(C)CC2=O)nc2c1c(=O)n(C)c(=O)n2C > 76.9 µM
Cc1cccc(-c2cc3nc4c(c(N5CCC6(CC5)OCCO6)n3n2)CCCC4)c1
Cc1ccccc1-n1nc2c(c1NC(=O)c1ccc(S(=O)(=O)N(C)C)cc1)CSC2 > 76.9 µM
Cc1cc(C)nc(N2C(=O)CC(C(=O)O)NC2=NCCc2c[nH]c3ccccc23)n1 (stereo unspecified) > 76.9 µM
O=C(Cc1cccs1)NCc1ccccc1F > 76.9 µM
COc1ccc(C(=O)N2CCN(C3CCCCC3)CC2)c(OC)c1 > 76.9 µM
Cc1cccc(N(C)C(=O)c2cc3cc4ccc(C)cc4nc3o2)c1 > 76.9 µM
CCOc1ccc(-n2cnnn2)cc1S(=O)(=O)NCc1ccccc1 > 76.9 µM
CCCn1c(SCC(=O)Nc2nnc(C)s2)nnc1-c1ccoc1C > 76.9 µM
O=C(NCCCN1CCCC1=O)c1ccccc1NS(=O)(=O)c1ccc(F)cc1 > 76.9 µM
CSc1nc(C)c2cc(C)oc2n1 > 76.9 µM
O=C(CSc1nnc(Cc2ccccc2)o1)Nc1ccc(Br)cn1 > 76.9 µM
O=C(Oc1nsnc1N1CCOCC1)N1CCCCC1 > 76.9 µM
Cc1cc(C(=O)N2CCN(C(=O)C3CCCO3)CC2)no1 (stereo unspecified) > 76.9 µM
CC(=C1C(=O)c2ccccc2C1=O)N1CCc2ccccc2C1 > 76.9 µM
CN(C)CCSc1nnc2sc3ccccc3n12 > 76.9 µM
Cc1ccc(S(=O)(=O)N2CCCN(S(=O)(=O)c3ccc4c(c3)OCCO4)CC2)cc1 > 76.9 µM
Cc1ccc(S(=O)(=O)N2CCC(C(=O)N[C@@H](Cc3ccccc3)C(=O)O)CC2)cc1 > 76.9 µM
COCCn1nnnc1C(c1ccc(OC)cc1OC)N1CCN(c2ccccc2F)CC1 (stereo unspecified) > 76.9 µM
COc1ccc(N2C(=O)C3CCCN3C2c2cccc(C)c2)cc1Cl (stereo unspecified) > 76.9 µM
CC(=O)N(Cc1cccnc1)Cc1cc2ccccc2[nH]c1=O > 76.9 µM
Cc1cccc(-n2nc3c(c2NC(=O)c2ccco2)CSC3)c1C > 76.9 µM
O=C1c2ccccc2C(=O)N1Cc1nc(-c2ccccc2)no1 > 76.9 µM
Cc1nnc(SCC(=O)N(C(C)C)C(C)C)nc1C > 76.9 µM
Clc1ccc(-c2ccc(-c3nn4c(-c5ccco5)nnc4s3)o2)cc1 > 76.9 µM
COc1ccc(CNC(=O)C2CC(=O)N(c3ccc(OCC(=O)N4CCCCC4)cc3)C2)cc1 (stereo unspecified) > 76.9 µM
O=C(Cn1cnc2ccccc2c1=O)c1c[nH]c2ccccc12 > 76.9 µM
Clc1ccccc1-c1nnc2sc(CCc3ccccc3)nn12 > 76.9 µM
COc1cccc(C(=O)Nc2ccc(N(C)C)cc2)c1OC > 76.9 µM
CCOC(=O)Cc1nc2ccccc2[nH]1 > 76.9 µM
CCOC(=O)c1c(C)n(C)c2cc(OCCN(CC)CC)ccc12 > 76.9 µM
Cc1ccc(CNC(=O)c2cn(C3CCCC3)c(=O)c3c2c2ccccc2n3C)o1 > 76.9 µM
Cn1c(=O)[nH]c(=O)c2c1nc(Br)n2CC(O)c1ccccc1 (stereo unspecified) > 76.9 µM
CC(C)NC(=O)CCCc1cn(C)c2ccccc12 > 76.9 µM
CCn1nc(CC(=O)Nc2nnc(CC(=O)N3CCCCC3)s2)c2ccccc2c1=O > 76.9 µM
Cc1cc(Oc2ccccc2)nc(N)n1 > 76.9 µM
COc1cc(OC)c(NC(=O)c2c(-c3ccccc3)noc2C)cc1Cl > 76.9 µM
CCN1CCN(c2ncc(C(=O)N3CCN(c4ccccc4OC)CC3)c3ccccc23)CC1
CCOC(=O)CSc1nnc(Cc2ccccc2)n1CC1CCCO1 (stereo unspecified) > 76.9 µM
Cc1ccc(CN2C(=O)CCC2C(=O)NCCCN2CCCC(C)C2)cc1 (stereo unspecified) > 76.9 µM
C1CCN(c2nc(N3CCCCC3)nc(N3CCNCC3)n2)CC1 > 76.9 µM
O=C(NCC1CCCO1)C1CCN(S(=O)(=O)N2CCCC2)CC1 (stereo unspecified) > 76.9 µM
Cc1cccc(N2CCN(C(=O)C3CCN(S(=O)(=O)c4cnc[nH]4)CC3)CC2)c1C > 76.9 µM
CCC(C)(C)NC(=O)C(c1ccc(F)cc1)N(Cc1ccco1)C(=O)c1snc(C(N)=O)c1N (stereo unspecified) > 76.9 µM
Cc1nnc(NC(=O)CCC(=O)NCc2ccco2)s1 > 76.9 µM
Cc1ccc2c(c1)N(CC(=O)N1CCCCCC1)C(=O)CO2 > 76.9 µM
CC(C)Cc1nc2oc3c(NCc4cccnc4)ncnc3c2c2c1CCC2 > 76.9 µM
CCOc1cc(S(=O)(=O)Nc2ccc(Cl)cn2)ccc1F > 76.9 µM
O=C(O)CC1(c2ccccc2)C(=O)c2ccccc2C1=O > 76.9 µM
COc1ccc(CN2CC(C(=O)NCCCN3CCCCCC3)CC2=O)cc1 (stereo unspecified) > 76.9 µM
O=C(O)c1ccc(Cn2cc(Cl)cn2)cc1 > 76.9 µM
CCOC(=O)c1cn(CC(=O)Nc2ccc(CC)cc2)nn1 > 76.9 µM
c1ccc(-n2c(-c3ccncc3)nnc2-c2ccco2)cc1 > 76.9 µM
COC(=O)[C@H](C)NC(=O)Nc1ccc(OC(F)(F)F)cc1 > 76.9 µM
COCc1nc(-c2ccc(-c3ccc(C)cc3)nc2OC)no1 > 76.9 µM
Cc1cccc(-n2c(C)nc3c(cnn3-c3ccc(F)cc3)c2=O)c1 > 76.9 µM
Cc1nnc(SCC(=O)Nn2cnnc2)s1 > 76.9 µM
CC(=O)N(CN1C(=O)c2ccccc2C1=O)c1ccccc1 > 76.9 µM
O=C(Nc1nnc(SCc2ccc(F)cc2)s1)c1ccco1 > 76.9 µM
COc1ccccc1NC(=O)Cn1nnc(-c2ccccc2NC(=O)c2cccs2)n1 > 76.9 µM
COC(=O)c1ccccc1NC(=O)Cn1cnc2ccc(S(=O)(=O)N3CCC(C)CC3)cc2c1=O > 76.9 µM
CCOC(=O)c1ccc(NS(=O)(=O)c2cccc3nsnc23)cc1 > 76.9 µM
CCCc1nnc(SCc2ccc(C(=O)OC)o2)n1N > 76.9 µM
O=C(Nc1ccccc1C(=O)N1CCCCCC1)c1cccc(S(=O)(=O)N2CCOCC2)c1 > 76.9 µM
COc1ccc2nc(C)cc(N3CCOCC3)c2c1 > 76.9 µM
N#Cc1ccc(Cn2c(=O)c(C#N)c3n(c2=O)CCC3)cc1 > 76.9 µM
CCS(=O)(=O)N1CCC(c2nc(-c3ccc(C)cc3)no2)CC1 > 76.9 µM
